Reference: PubChem BioAssay (Tox21)
Where “and” joins values, the source holds several entries; their conditions need not be identical. Equal entries are not always repeated. Inconclusive means that the source gave no clear call. Such entries were picked first, then a sample of the others. Where the call is inconclusive, the potency comes from a doubtful curve fit. Calls of active or inactive are those of the source. Calls follow the shape of the dose curve; as a rule, active = well fitted inhibition curve with a large enough effect in the signal ratio in the repeat runs (not every such curve was filed as active); inconclusive = weak or mixed curves; inactive = flat fitted curve, though single readings scatter; the % refers to the signal ratio.

Each compound was assayed against Progesterone receptor (Homo sapiens) (UniProt P06401) (assay: qHTS assay to identify small molecule antagonists of the progesterone receptor (PR) signaling pathway (AID 1346795)). Conditions: PR-UAS-bla HEK293T, beta-lactamase FRET ratio, 16 h; activity change, negative = inhibition: at 92.4 µM (top of the series) unless noted.
Summary of the method: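 Inhibition of R5020-induced (1 nM final) beta-lactamase reporter signal in PR-UAS-bla HEK293T cells was scored by FRET fluorescence after overnight (16 hr) compound treatment.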
% is scaled to controls: 0 for no effect and ±100 for the full control effect; potency is read from the fitted curve at half-maximal effect; tags tell the direction and shape of the fitted curve.

Sequence of UniProt P06401 (P06401 whole entry, looked up): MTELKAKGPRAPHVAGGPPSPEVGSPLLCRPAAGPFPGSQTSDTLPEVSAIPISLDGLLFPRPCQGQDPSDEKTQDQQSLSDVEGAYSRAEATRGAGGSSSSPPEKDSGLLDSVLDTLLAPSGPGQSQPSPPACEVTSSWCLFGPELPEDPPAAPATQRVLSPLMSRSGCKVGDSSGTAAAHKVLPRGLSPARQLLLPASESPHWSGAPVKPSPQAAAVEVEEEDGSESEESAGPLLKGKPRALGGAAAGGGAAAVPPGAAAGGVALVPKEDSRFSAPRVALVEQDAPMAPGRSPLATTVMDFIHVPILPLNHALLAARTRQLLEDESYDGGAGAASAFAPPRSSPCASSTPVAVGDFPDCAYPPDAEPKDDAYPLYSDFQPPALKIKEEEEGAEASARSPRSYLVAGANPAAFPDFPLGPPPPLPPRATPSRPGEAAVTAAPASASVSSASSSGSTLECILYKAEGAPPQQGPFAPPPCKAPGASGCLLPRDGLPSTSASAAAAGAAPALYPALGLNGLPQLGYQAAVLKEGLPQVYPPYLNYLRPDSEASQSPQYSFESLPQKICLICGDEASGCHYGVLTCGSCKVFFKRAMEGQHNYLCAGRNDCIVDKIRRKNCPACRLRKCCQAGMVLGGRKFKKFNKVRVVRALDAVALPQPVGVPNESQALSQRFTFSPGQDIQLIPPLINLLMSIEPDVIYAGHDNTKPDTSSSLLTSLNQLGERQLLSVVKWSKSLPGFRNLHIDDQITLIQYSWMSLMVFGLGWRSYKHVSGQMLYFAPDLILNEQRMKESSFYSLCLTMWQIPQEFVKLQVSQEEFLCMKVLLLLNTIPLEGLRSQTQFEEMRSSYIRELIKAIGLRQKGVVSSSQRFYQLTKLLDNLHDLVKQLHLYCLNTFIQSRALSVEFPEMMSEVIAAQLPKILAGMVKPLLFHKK

| Structure (SMILES) | activity change, negative = inhibition | Potency |
| --- | --- | --- |
| CC(C)(C)OCC1CO1 (stereo not drawn) | inconclusive: 7.34% |  |
| Cc1c(Cn2ccnc2)c2ccccc2n1CCC(=O)O | inactive: 7.11% [at 42.5 µM] |  |
| CCCC(CC)c1ccccc1 (stereo not drawn) | inactive: 9.87% |  |
| CCCN(CCc1cccs1)[C@H]1CCc2c(O)cccc2C1 |  | active: 29.8 µM |
| C=Cc1ccccn1 | inactive: 0.073% |  |
| CCc1ccc(C(=O)C(C)CN2CCCCC2)cc1 (stereo not drawn) | inactive: -3.65% [at 42.5 µM] |  |
| Cc1c(NC(C)C)c(=O)n(-c2ccccc2)n1C | inconclusive: 6.31% [at 42.5 µM] |  |
| OC(CCl)CCl |  | inactive |
| Oc1ccccc1O | inconclusive: -31.8% and inconclusive: -29.5% |  |
| CCCCCCC(C)O (stereo not drawn) | inconclusive: 12.2% |  |
| c1ccc2[nH]c(-c3cscn3)nc2c1 | inconclusive: -32.7% |  |
| CC(C)CCOC(=O)c1ccccc1 | inactive: 1.05% |  |
| CC(=O)OCC(=O)[C@@]1(O)[C@H](OC(C)=O)C[C@H]2[C@@H]3CCC4=CC(=O)C=C[C@]4(C)[C@@]3(F)[C@@H](O)C[C@@]21C | inconclusive: -41.2% [at 42.5 µM] |  |
| COc1ccccc1Oc1c(NS(=O)(=O)c2ccc(C(C)(C)C)cc2)nc(-c2ncccn2)nc1OCCO |  | inconclusive: 33.5 µM [falling, single point] |
| CC(=O)Nc1ccc(CC(=O)O)cc1 |  | inconclusive: 0.193 µM [rising, full curve, poor fit] |
| Cc1ccc2c(n1)Oc1ccc(C(C)C(=O)OCC(=O)N(C)C)cc1C2 (stereo not drawn) |  | inactive |
| C[C@@H]1CC[C@H]2C(C)(C)[C@H]3C[C@@]12CC[C@@]3(C)O | inconclusive: -3.31% |  |
| O=C1c2ccccc2C(=O)c2cc(Cl)ccc21 | inactive: 1.29% [at 8.39 µM] |  |
